From the supplement of paper PMC8728848
Some of the results follow.

What was measured:
Assay in all cases: glycan array binding signal (z-score within array); higher = stronger binding
Settings in all cases: glycan notation: IUPAC condensed, linker removed
[1] = target: GlcNAc(b1-4)GlcNAc(b1-4)GlcNAc(b1-4)GlcNAc(b1-4)GlcNAc
Outline: (§1)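 The Consortium for Functional Glycomics database supplied 3228 glycan arrays, of which those lacking an available protein sequence were dropped. The binding signal, a within-array Z-score, was averaged across arrays of the same protein sequence and across linkers. Negative scores can be read as non-binding.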

[2] = target: GlcNAc(b1-4)GlcNAc(b1-4)GlcNAc(b1-4)GlcNAc(b1-4)GlcNAc(b1-4)GlcNAc
Outline: as §1

[3] = target: GlcNAc(b1-4)[GlcNAc(b1-6)]GalNAc
Outline: as §1

[4] = target: GlcNAc(b1-6)Gal(b1-4)GlcNAc
Outline: as §1

[5] = target: GlcNAc(b1-6)GalNAc
Outline: as §1

[6] = target: GlcNAc6S(b1-3)Gal(b1-4)GlcNAc
Outline: as §1

[7] = target: Kdn(a2-3)Gal(b1-3)GalNAc
Outline: as §1

[8] = target: Kdn(a2-3)Gal(b1-3)GlcNAc
Outline: as §1

[9] = target: Kdn(a2-3)Gal(b1-4)Glc
Outline: as §1

[10] = target: Kdn(a2-3)Gal(b1-4)GlcNAc
Outline: as §1

[11] = target: Kdn(a2-3)Gal(b1-4)[Fuc(a1-3)]GlcNAc
Outline: as §1

[12] = target: Kdn(a2-6)Gal(b1-4)GlcNAc
Outline: as §1

[13] = target: Man(a1-2)Man(a1-2)Man(a1-3)Man
Outline: as §1

[14] = target: Man(a1-2)Man(a1-2)Man(a1-6)[Man(a1-3)]Man
Outline: as §1

[15] = target: Man(a1-2)Man(a1-3)Man
Outline: as §1

[16] = target: Man(a1-2)Man(a1-3)[Man(a1-2)Man(a1-6)]Man
Outline: as §1

[17] = target: Man(a1-2)Man(a1-3)[Man(a1-2)Man(a1-6)]Man(a1-6)[Man(a1-2)Man(a1-2)Man(a1-3)]Man
Outline: as §1

[18] = target: Man(a1-2)Man(a1-3)[Man(a1-2)Man(a1-6)]Man(a1-6)[Man(a1-2)Man(a1-2)Man(a1-3)]Man(b1-4)GlcNAc(b1-4)GlcNAc
Outline: as §1

[19] = target: Man(a1-2)Man(a1-3)[Man(a1-6)]Man(a1-6)[Man(a1-2)Man(a1-3)]Man(b1-4)GlcNAc(b1-4)GlcNAc
Outline: as §1

[20] = target: Man(a1-2)Man(a1-6)[Man(a1-3)]Man(a1-6)[Man(a1-2)Man(a1-2)Man(a1-3)]Man
Outline: as §1

[21] = target: Man(a1-2)Man(a1-6)[Man(a1-3)]Man(a1-6)[Man(a1-2)Man(a1-2)Man(a1-3)]Man(b1-4)GlcNAc(b1-4)GlcNAc
Outline: as §1

[22] = target: Man(a1-3)[Man(a1-6)]Man
Outline: as §1

[23] = target: Man(a1-3)[Man(a1-6)]Man(a1-6)[Man(a1-2)Man(a1-3)]Man(b1-4)GlcNAc(b1-4)GlcNAc
Outline: as §1

[24] = target: Man(a1-3)[Man(a1-6)]Man(a1-6)[Man(a1-3)]Man
Outline: as §1

[25] = target: Man(a1-3)[Man(a1-6)]Man(a1-6)[Man(a1-3)]Man(b1-4)GlcNAc(b1-4)GlcNAc
Outline: as §1

[26] = target: Man(a1-3)[Man(a1-6)]Man(b1-4)GlcNAc(b1-4)GlcNAc
Outline: as §1

[27] = target: Man(a1-3)[Man(a1-6)]Man(b1-4)GlcNAc(b1-4)[Fuc(a1-6)]GlcNAc
Outline: as §1

[28] = target: Man(a1-6)Man
Outline: as §1

[29] = target: Man(b1-4)GlcNAc
Outline: as §1

[30] = target: MurNAc(b1-4)GlcNAc
Outline: as §1

[31] = target: Neu5Ac(a2-3)Gal
Outline: as §1

[32] = target: Neu5Ac(a2-3)Gal(b1-3)GalNAc
Outline: as §1

[33] = target: Neu5Ac(a2-3)Gal(b1-3)GalNAc(b1-3)Gal(a1-4)Gal(b1-4)Glc
Outline: as §1

[34] = target: Neu5Ac(a2-3)Gal(b1-3)GalNAc(b1-4)Gal(b1-4)Glc
Outline: as §1

[35] = target: Neu5Ac(a2-3)Gal(b1-3)GalNAc(b1-4)[Neu5Ac(a2-3)]Gal(b1-4)Glc
Outline: as §1

[36] = target: Neu5Ac(a2-3)Gal(b1-3)GalNAc(b1-4)[Neu5Ac(a2-8)Neu5Ac(a2-3)]Gal(b1-4)Glc
Outline: as §1

[37] = target: Neu5Ac(a2-3)Gal(b1-3)GalNAc6S
Outline: as §1

[38] = target: Neu5Ac(a2-3)Gal(b1-3)GlcNAc
Outline: as §1

[39] = target: Neu5Ac(a2-3)Gal(b1-3)GlcNAc(b1-2)Man
Outline: as §1

[40] = target: Neu5Ac(a2-3)Gal(b1-3)GlcNAc(b1-2)Man(a1-3)[GlcNAc(b1-4)][Neu5Ac(a2-3)Gal(b1-3)GlcNAc(b1-2)Man(a1-6)]Man(b1-4)GlcNAc(b1-4)GlcNAc
Outline: as §1

[41] = target: Neu5Ac(a2-3)Gal(b1-3)GlcNAc(b1-2)Man(a1-3)[Neu5Ac(a2-3)Gal(b1-3)GlcNAc(b1-2)Man(a1-6)]Man(b1-4)GlcNAc(b1-4)GlcNAc
Outline: as §1

[42] = target: Neu5Ac(a2-3)Gal(b1-3)GlcNAc(b1-2)[Neu5Ac(a2-3)Gal(b1-3)GlcNAc(b1-4)]Man(a1-6)[Neu5Ac(a2-3)Gal(b1-3)GlcNAc(b1-2)Man(a1-3)]Man(b1-4)GlcNAc(b1-4)GlcNAc
Outline: as §1

[43] = target: Neu5Ac(a2-3)Gal(b1-3)GlcNAc(b1-3)Gal(b1-3)GlcNAc
Outline: as §1

[44] = target: Neu5Ac(a2-3)Gal(b1-3)GlcNAc(b1-3)Gal(b1-4)GlcNAc
Outline: as §1

[45] = target: Neu5Ac(a2-3)Gal(b1-3)GlcNAc(b1-3)GalNAc
Outline: as §1

CTAEGIKKFEGDGYELFKDNFPAGEKFDNDDTNDQFYTVIF [MUB40 (Lactobacillus reuteri)] was tested, and the “glycan array binding signal (z-score)” value [1] was 0.013, the “glycan array binding signal (z-score)” value [2] was -0.138 and the “glycan array binding signal (z-score)” value [3] was -0.633. The “glycan array binding signal (z-score)” value [4] was 0.015, the “glycan array binding signal (z-score)” value [5] was -0.355 and the “glycan array binding signal (z-score)” value [6] was 0.019. For the same binder, the “glycan array binding signal (z-score)” value [7] was -0.316, the “glycan array binding signal (z-score)” value [8] was -0.525 and the “glycan array binding signal (z-score)” value [9] was -0.547. For the same binder, the “glycan array binding signal (z-score)” value [10] was -0.376, the “glycan array binding signal (z-score)” value [11] was -0.713 and the “glycan array binding signal (z-score)” value [12] was 0.773. For the same binder, the “glycan array binding signal (z-score)” value [13] was -0.245, the “glycan array binding signal (z-score)” value [14] was -1.03 and the “glycan array binding signal (z-score)” value [15] was 2.3. For the same binder, the “glycan array binding signal (z-score)” value [16] was -0.432, the “glycan array binding signal (z-score)” value [17] was -0.294 and the “glycan array binding signal (z-score)” value [18] was -0.182. The “glycan array binding signal (z-score)” value [19] was -0.721, the “glycan array binding signal (z-score)” value [20] was -0.53 and the “glycan array binding signal (z-score)” value [21] was -0.33. For the same binder, the “glycan array binding signal (z-score)” value [22] was -0.111, the “glycan array binding signal (z-score)” value [23] was 0.761 and the “glycan array binding signal (z-score)” value [24] was -0.507. For the same binder, the “glycan array binding signal (z-score)” value [25] was -0.444, the “glycan array binding signal (z-score)” value [26] was -0.289 and the “glycan array binding signal (z-score)” value [27] was -0.496. For the same binder, the “glycan array binding signal (z-score)” value [28] was 0.152, the “glycan array binding signal (z-score)” value [29] was -0.366 and the “glycan array binding signal (z-score)” value [30] was -0.95. The “glycan array binding signal (z-score)” value [31] was -0.258, the “glycan array binding signal (z-score)” value [32] was -0.01 and the “glycan array binding signal (z-score)” value [33] was -0.355. The “glycan array binding signal (z-score)” value [34] was 0.156, the “glycan array binding signal (z-score)” value [35] was -0.339 and the “glycan array binding signal (z-score)” value [36] was 1.18. The “glycan array binding signal (z-score)” value [37] was -0.21, the “glycan array binding signal (z-score)” value [38] was -0.358 and the “glycan array binding signal (z-score)” value [39] was -0.237. For the same binder, the “glycan array binding signal (z-score)” value [40] was -0.273, the “glycan array binding signal (z-score)” value [41] was -0.198 and the “glycan array binding signal (z-score)” value [42] was 0.361. The “glycan array binding signal (z-score)” value [43] was -0.628, the “glycan array binding signal (z-score)” value [44] was 0.194 and the “glycan array binding signal (z-score)” value [45] was 0.411.
